Measurements taken from the supplement of paper PMC8728848.
The list shows a part of the results.

Legend:
Experiment in all cases: glycan array binding signal (z-score within array); higher = stronger binding
Settings in all cases: glycan notation: IUPAC condensed, linker removed
[1] = target: Fuc(a1-2)[Gal(a1-3)]Gal(b1-4)GlcNAc(b1-2)Man(a1-3)[Fuc(a1-2)[Gal(a1-3)]Gal(b1-4)GlcNAc(b1-2)Man(a1-6)]Man(b1-4)GlcNAc(b1-4)[Fuc(a1-6)]GlcNAc
In short: (§1)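 The binding signal is a Z-score computed within each array and averaged over linkers. Arrays of the same protein sequence at different concentrations or buffers were also averaged together. Data originate from 3228 arrays in the Consortium for Functional Glycomics database, kept only where the protein sequence was available.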

[2] = target: Fuc(a1-2)[Gal(a1-3)]Gal(b1-4)GlcNAc(b1-3)GalNAc
In short: as §1

[3] = target: Fuc(a1-2)[Gal(a1-3)]Gal(b1-4)GlcNAc(b1-6)GalNAc
In short: as §1

[4] = target: Fuc(a1-2)[Gal(a1-3)]Gal(b1-4)[Fuc(a1-3)]Glc
In short: as §1

[5] = target: Fuc(a1-2)[Gal(a1-3)]Gal(b1-4)[Fuc(a1-3)]GlcNAc
In short: as §1

[6] = target: Fuc(a1-2)[Gal(a1-3)]Gal(b1-4)[Fuc(a1-3)]GlcNAc(b1-3)GalNAc
In short: as §1

[7] = target: Fuc(a1-2)[Gal(a1-4)]Gal(b1-4)GlcNAc
In short: as §1

[8] = target: Fuc(a1-2)[GalNAc(a1-3)]Gal
In short: as §1

[9] = target: Fuc(a1-2)[GalNAc(a1-3)]Gal(b1-3)GalNAc(a1-3)[Fuc(a1-2)]Gal(b1-4)GlcNAc
In short: as §1

[10] = target: Fuc(a1-2)[GalNAc(a1-3)]Gal(b1-3)GalNAc(b1-3)Gal(a1-4)Gal(b1-4)Glc
In short: as §1

[11] = target: Fuc(a1-2)[GalNAc(a1-3)]Gal(b1-3)GlcNAc
In short: as §1

[12] = target: Fuc(a1-2)[GalNAc(a1-3)]Gal(b1-3)GlcNAc(b1-2)Man(a1-3)[Fuc(a1-2)[GalNAc(a1-3)]Gal(b1-3)GlcNAc(b1-2)Man(a1-6)]Man(b1-4)GlcNAc(b1-4)GlcNAc
In short: as §1

[13] = target: Fuc(a1-2)[GalNAc(a1-3)]Gal(b1-3)GlcNAc(b1-2)Man(a1-3)[Fuc(a1-2)[GalNAc(a1-3)]Gal(b1-3)GlcNAc(b1-2)Man(a1-6)]Man(b1-4)GlcNAc(b1-4)[Fuc(a1-6)]GlcNAc
In short: as §1

[14] = target: Fuc(a1-2)[GalNAc(a1-3)]Gal(b1-3)GlcNAc(b1-3)GalNAc
In short: as §1

[15] = target: Fuc(a1-2)[GalNAc(a1-3)]Gal(b1-3)GlcNAc(b1-6)GalNAc
In short: as §1

[16] = target: Fuc(a1-2)[GalNAc(a1-3)]Gal(b1-4)Glc
In short: as §1

[17] = target: Fuc(a1-2)[GalNAc(a1-3)]Gal(b1-4)GlcNAc
In short: as §1

[18] = target: Fuc(a1-2)[GalNAc(a1-3)]Gal(b1-4)GlcNAc(b1-2)Man
In short: as §1

[19] = target: Fuc(a1-2)[GalNAc(a1-3)]Gal(b1-4)GlcNAc(b1-2)Man(a1-3)[Fuc(a1-2)[GalNAc(a1-3)]Gal(b1-4)GlcNAc(b1-2)Man(a1-6)]Man(b1-4)GlcNAc(b1-4)GlcNAc
In short: as §1

[20] = target: Fuc(a1-2)[GalNAc(a1-3)]Gal(b1-4)GlcNAc(b1-2)Man(a1-3)[Fuc(a1-2)[GalNAc(a1-3)]Gal(b1-4)GlcNAc(b1-2)Man(a1-6)]Man(b1-4)GlcNAc(b1-4)[Fuc(a1-6)]GlcNAc
In short: as §1

[21] = target: Fuc(a1-2)[GalNAc(a1-3)]Gal(b1-4)GlcNAc(b1-3)Gal(b1-4)GlcNAc
In short: as §1

[22] = target: Fuc(a1-2)[GalNAc(a1-3)]Gal(b1-4)GlcNAc(b1-3)Gal(b1-4)GlcNAc(b1-3)Gal(b1-4)GlcNAc
In short: as §1

[23] = target: Fuc(a1-2)[GalNAc(a1-3)]Gal(b1-4)GlcNAc(b1-3)GalNAc
In short: as §1

[24] = target: Fuc(a1-2)[GalNAc(a1-3)]Gal(b1-4)GlcNAc(b1-3)[Fuc(a1-2)[GalNAc(a1-3)]Gal(b1-4)GlcNAc(b1-6)]GalNAc
In short: as §1

[25] = target: Fuc(a1-2)[GalNAc(a1-3)]Gal(b1-4)GlcNAc(b1-6)GalNAc
In short: as §1

[26] = target: Fuc(a1-2)[GalNAc(a1-3)]Gal(b1-4)[Fuc(a1-3)]GlcNAc
In short: as §1

[27] = target: Fuc(a1-2)[GalNAc(a1-3)]Gal(b1-4)[Fuc(a1-3)]GlcNAc(b1-3)GalNAc
In short: as §1

[28] = target: Fuc(a1-2)[GalNAc(a1-4)]Gal(b1-4)GlcNAc
In short: as §1

[29] = target: Fuc(a1-2)[GalNAc(b1-3)]Gal
In short: as §1

Fuc(a1-3)GlcNAc = target: Fuc(a1-3)GlcNAc
In short: as §1

[30] = target: Fuc(a1-3)[Gal(b1-4)]Glc6S
In short: as §1

[31] = target: Fuc(a1-3)[Gal(b1-4)]GlcNAc
In short: as §1

[32] = target: Fuc(a1-3)[Gal(b1-4)]GlcNAc(b1-2)Man
In short: as §1

[33] = target: Fuc(a1-3)[Gal(b1-4)]GlcNAc(b1-2)Man(a1-3)[Fuc(a1-3)[Gal(b1-4)]GlcNAc(b1-2)Man(a1-6)]Man(b1-4)GlcNAc(b1-4)GlcNAc
In short: as §1

[34] = target: Fuc(a1-3)[Gal(b1-4)]GlcNAc(b1-2)Man(a1-3)[Fuc(a1-3)[Gal(b1-4)]GlcNAc(b1-2)Man(a1-6)]Man(b1-4)GlcNAc(b1-4)[Fuc(a1-6)]GlcNAc
In short: as §1

[35] = target: Fuc(a1-3)[Gal(b1-4)]GlcNAc(b1-3)Gal(b1-3)[Fuc(a1-4)]GlcNAc
In short: as §1

[36] = target: Fuc(a1-3)[Gal(b1-4)]GlcNAc(b1-3)GalNAc
In short: as §1

[37] = target: Fuc(a1-3)[Gal(b1-4)]GlcNAc(b1-4)Gal(b1-4)[Fuc(a1-3)]GlcNAc
In short: as §1

[38] = target: Fuc(a1-3)[Gal(b1-4)]GlcNAc(b1-4)Gal(b1-4)[Fuc(a1-3)]GlcNAc(b1-4)Gal(b1-4)[Fuc(a1-3)]GlcNAc
In short: as §1

[39] = target: Fuc(a1-3)[Gal(b1-4)]GlcNAc(b1-6)GalNAc
In short: as §1

[40] = target: Fuc(a1-3)[Gal(b1-4)]GlcNAc(b1-6)[Gal(b1-3)GlcNAc(b1-3)]Gal(b1-4)Glc
In short: as §1

[41] = target: Fuc(a1-3)[Gal(b1-4)]GlcNAc6S
In short: as §1

[42] = target: Fuc(a1-3)[Gal3S(b1-4)]Glc
In short: as §1

[43] = target: Fuc(a1-3)[Gal3S(b1-4)]GlcNAc
In short: as §1

[44] = target: Fuc(a1-3)[Gal3S(b1-4)]GlcNAc6S
In short: as §1

B1: F17-L (Escherichia coli) (protein)
chain: GPDDYVPSQIAVNTSTLPGVVIGPADAHTYPRVIGELAGTSNQYVFNGGAIALMRGKFTPALPKIGSITYTFHQGNSRDSSDFDIYDIGVSGLGIIIGMAGYWPATPLVPINSSGIYIDPVGANTNPNTYNGATASFGARLFVAFVATGRLPNGYITIPTRQLGTILLEAKRTSLNNKGLTAPVMLNGGRIQVQSQTHHHHHH
[1]
  glycan array binding signal (z-score): 0.01
[2]
  glycan array binding signal (z-score): -0.047
[3]
  glycan array binding signal (z-score): -0.039
[4]
  glycan array binding signal (z-score): -0.178
[5]
  glycan array binding signal (z-score): -0.097
[6]
  glycan array binding signal (z-score): -0.138
[7]
  glycan array binding signal (z-score): -0.024
[8]
  glycan array binding signal (z-score): -0.162
[9]
  glycan array binding signal (z-score): -0.08
[10]
  glycan array binding signal (z-score): 0.104
[11]
  glycan array binding signal (z-score): -0.064
[12]
  glycan array binding signal (z-score): -0.078
[13]
  glycan array binding signal (z-score): -0.118
[14]
  glycan array binding signal (z-score): -0.13
[15]
  glycan array binding signal (z-score): -0.007
[16]
  glycan array binding signal (z-score): -0.051
[17]
  glycan array binding signal (z-score): -0.114
[18]
  glycan array binding signal (z-score): -0.014
[19]
  glycan array binding signal (z-score): -0.152
[20]
  glycan array binding signal (z-score): -0.08
[21]
  glycan array binding signal (z-score): -0.177
[22]
  glycan array binding signal (z-score): -0.015
[23]
  glycan array binding signal (z-score): 0.026
[24]
  glycan array binding signal (z-score): -0.112
[25]
  glycan array binding signal (z-score): -0.121
[26]
  glycan array binding signal (z-score): -0.083
[27]
  glycan array binding signal (z-score): -0.046
[28]
  glycan array binding signal (z-score): -0.152
[29]
  glycan array binding signal (z-score): -0.064
Fuc(a1-3)GlcNAc
  glycan array binding signal (z-score): -0.198
[30]
  glycan array binding signal (z-score): -0.015
[31]
  glycan array binding signal (z-score): -0.031
[32]
  glycan array binding signal (z-score): 0.069
[33]
  glycan array binding signal (z-score): -0.072
[34]
  glycan array binding signal (z-score): -0.109
[35]
  glycan array binding signal (z-score): -0.204
[36]
  glycan array binding signal (z-score): -0.194
[37]
  glycan array binding signal (z-score): -0.163
[38]
  glycan array binding signal (z-score): -0.066
[39]
  glycan array binding signal (z-score): -0.091
[40]
  glycan array binding signal (z-score): 0.021
[41]
  glycan array binding signal (z-score): -0.058
[42]
  glycan array binding signal (z-score): -0.092
[43]
  glycan array binding signal (z-score): -0.117
[44]
  glycan array binding signal (z-score): 0.056
